Measured values: the supplement of paper PMC3334620
Over roughly 33,000 sequences, “E-score (-0.5 to 0.5)” has its median near -0.032; the highest 2% begin near 0.36. The list shows a part of the results.

These sequences were tested against T1, Sko1 (UniProt Q02100) (assay: PBM E-score (8-mer binding enrichment) (E-score (-0.5 to 0.5)); higher = stronger / more preferred TF binding; most listed sequences are background and not binding sites). Conditions: protein concentration: 200 nM; construct: GST-full length.
T1 sequence: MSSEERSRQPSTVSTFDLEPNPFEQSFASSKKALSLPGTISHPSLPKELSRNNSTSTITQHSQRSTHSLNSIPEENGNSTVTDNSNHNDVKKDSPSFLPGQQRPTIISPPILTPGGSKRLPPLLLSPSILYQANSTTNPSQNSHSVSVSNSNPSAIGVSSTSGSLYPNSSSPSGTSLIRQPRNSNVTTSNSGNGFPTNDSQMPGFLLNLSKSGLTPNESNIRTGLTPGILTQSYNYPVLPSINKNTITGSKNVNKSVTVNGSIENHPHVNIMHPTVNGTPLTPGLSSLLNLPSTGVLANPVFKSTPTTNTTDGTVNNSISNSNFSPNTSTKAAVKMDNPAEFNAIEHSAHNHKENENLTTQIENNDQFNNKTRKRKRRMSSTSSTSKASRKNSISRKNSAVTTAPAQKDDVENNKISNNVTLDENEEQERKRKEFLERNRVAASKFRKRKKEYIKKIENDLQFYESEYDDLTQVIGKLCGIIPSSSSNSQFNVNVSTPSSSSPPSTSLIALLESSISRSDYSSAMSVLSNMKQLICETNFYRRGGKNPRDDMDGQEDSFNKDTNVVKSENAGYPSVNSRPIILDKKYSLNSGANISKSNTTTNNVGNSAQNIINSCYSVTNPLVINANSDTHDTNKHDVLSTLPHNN
Outline: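 PURExpress in vitro transcription/translation supplied GST-tagged yeast transcription factors, either full-length or DNA-binding domain. Applied at about 100-200 nM to universal all-10-mer Agilent arrays double-stranded by primer extension, the bound protein was detected with fluorescent anti-GST. E-scores, modified Wilcoxon-Mann-Whitney statistics, were given by the Universal PBM Analysis Suite to ungapped eight-base words pooled with their reverse complements after masliner normalisation.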

First: AGAAGTGA
Second: ATCTTAGC
The “PBM E-score” value of the first is lower: -0.0731 for the first, 0.00882 for the second.

First: CGGCGTAC
Second: AACGCAAA
The “PBM E-score” value of the first is lower: -0.0639 for the first, 0.175 for the second.

ATAACGCG and GCATTAAA are the same in “PBM E-score” value: 0.184 for the first, 0.184 for the second.

Going from CCGAAGGC to GATAGCGC, the “PBM E-score” value rises from -0.292 to -0.0838.

Compared with AGATGGCC, ACTACTCG is higher in “PBM E-score” value: -0.0253 for the first, 0.0191 for the second.

Compared with GGATGAAA, CTTCTAGC is lower in “PBM E-score” value: 0.033 for the first, -0.283 for the second.

Compared with CATGGAAC, CTCAAGAA is higher in “PBM E-score” value: -0.157 for the first, -0.117 for the second.

Going from CCACTGCC to AAGCCGCC, the “PBM E-score” value falls from -0.139 to -0.418.

Compared with AGAGTACC, ACTAAGGG is lower in “PBM E-score” value: -0.0677 for the first, -0.238 for the second.

Compared with AGCAGTTA, CTTCTCTA is lower in “PBM E-score” value: 0.0416 for the first, -0.284 for the second.

Compared with AATACCTC, AGAACCAT is higher in “PBM E-score” value: -0.0107 for the first, 0.092 for the second.

Compared with TAATTTAA, GATCTGCA is lower in “PBM E-score” value: 0.268 for the first, -0.192 for the second.

Compared with CATAGTCC, TCTTCTAA is higher in “PBM E-score” value: -0.0594 for the first, 0.038 for the second.

Going from ACGCAAGC to ATGATCAC, the “PBM E-score” value falls from 0.327 to 0.184.

Going from CACCGTGA to ACGCCGCT, the “PBM E-score” value rises from -0.0965 to -0.0909.

First: ACCCGCAG
Second: AAACCTAC
The “PBM E-score” value of the first is lower: -0.158 for the first, 0.0275 for the second.

Compared with AACATATT, GGTCATTA is higher in “PBM E-score” value: 0.167 for the first, 0.232 for the second.

Compared with ACGGAAGT, CGGATGTC is lower in “PBM E-score” value: -0.0514 for the first, -0.264 for the second.

Going from CCGTCACC to ACATCAGG, the “PBM E-score” value falls from 0.101 to 0.0353.

Compared with AACGTTCT, ATGCCATA is lower in “PBM E-score” value: 0.167 for the first, 0.089 for the second.

Compared with AGAGGGCT, ATTTAGGG is higher in “PBM E-score” value: -0.406 for the first, 0.0528 for the second.

Compared with ACGCATTA, AGGATACT is lower in “PBM E-score” value: 0.293 for the first, -0.102 for the second.

Compared with AGAATAGA, ACCAGCAT is lower in “PBM E-score” value: 0.0185 for the first, -0.0909 for the second.

Compared with ATTGTTTG, TCAGTTCA is lower in “PBM E-score” value: 0.17 for the first, 0.0281 for the second.

Compared with ACTTGCAA, AAGGTAAC is lower in “PBM E-score” value: 0.0608 for the first, 0.0186 for the second.

First: TGGGCACA
Second: ATGGGCAA
The “PBM E-score” value of the first is higher: -0.00527 for the first, -0.138 for the second.

Going from GTGTGAAC to AACCCTGT, the “PBM E-score” value falls from 0.0263 to -0.266.

Compared with AGCCCTTG, GATTGCTA is higher in “PBM E-score” value: -0.296 for the first, -0.0351 for the second.

Compared with GGGAGAAC, TAGATCGA is higher in “PBM E-score” value: -0.181 for the first, 0.0983 for the second.

Going from CACTATCC to CCGATGGC, the “PBM E-score” value falls from -0.124 to -0.219.

Compared with AAAAAAGC, GATCGGCA is lower in “PBM E-score” value: 0.126 for the first, -0.198 for the second.

Compared with CGCGACCC, TGCTAAAA is higher in “PBM E-score” value: -0.00302 for the first, 0.0515 for the second.

Going from CAATTCTG to TCGACAGA, the “PBM E-score” value rises from -0.209 to -0.0554.

Compared with AATGGTCA, GCTGAATA is higher in “PBM E-score” value: 0.0593 for the first, 0.064 for the second.

First: ATAATTTA
Second: ACGTCCAG
The “PBM E-score” value of the first is lower: 0.222 for the first, 0.224 for the second.

Compared with AGAAGACT, CATTTGCG is higher in “PBM E-score” value: -0.156 for the first, 0.179 for the second.

Going from AATACTCT to ATCCCTCA, the “PBM E-score” value falls from 0.0267 to -0.128.

First: AGTGCGAA
Second: CTAGCCAA
The “PBM E-score” value of the first is lower: -0.188 for the first, -0.0615 for the second.

First: CGTACCCA
Second: TACGTTAA
The “PBM E-score” value of the first is lower: 0.133 for the first, 0.413 for the second.

Going from AGAATCTC to ATTACGGC, the “PBM E-score” value rises from -0.0337 to 0.303.

Compared with GTTGGAAA, GCTCATTA is higher in “PBM E-score” value: -0.00433 for the first, 0.0713 for the second.

Compared with GGTATACA, CCGGCCCG is lower in “PBM E-score” value: 0.0243 for the first, -0.325 for the second.

First: ATAGGAAC
Second: ATACCTTG
The “PBM E-score” value of the first is lower: -0.00132 for the first, 0.0186 for the second.

Going from AAACAGAG to AGGCATAT, the “PBM E-score” value rises from 0.02 to 0.127.

First: ACTGCAGG
Second: GGGTTCCA
The “PBM E-score” value of the first is higher: -0.11 for the first, -0.342 for the second.

Compared with GTGCTATA, CTTCAAGC is lower in “PBM E-score” value: 0.182 for the first, -0.107 for the second.

First: GAGCCCTC
Second: CAGAGTTA
The “PBM E-score” value of the first is lower: -0.351 for the first, 0.0112 for the second.

Compared with ACGATTGA, CCACCCGA is lower in “PBM E-score” value: 0.157 for the first, -0.113 for the second.

First: CGACCGTA
Second: CCCATGGA
The “PBM E-score” value of the first is lower: -0.292 for the first, -0.189 for the second.

Compared with CATTGAAA, AGCTGTAC is lower in “PBM E-score” value: 0.23 for the first, -0.0899 for the second.

Compared with ATTCATGG, GCCGCTAA is lower in “PBM E-score” value: -0.00923 for the first, -0.248 for the second.

First: ATACATGA
Second: CGCCAAGA
The “PBM E-score” value of the first is higher: 0.183 for the first, -0.248 for the second.

First: ACCTGCAA
Second: CAATTCTA
The “PBM E-score” value of the first is lower: -0.178 for the first, 0.0756 for the second.

First: AAGTTCTA
Second: CGACCTTA
The “PBM E-score” value of the first is lower: 0.0364 for the first, 0.0387 for the second.

First: AATAGGTA
Second: TTATTGAA
The “PBM E-score” value of the first is higher: 0.184 for the first, 0.0971 for the second.

Compared with CGGTGGCA, AGATGTGC is higher in “PBM E-score” value: -0.114 for the first, -0.105 for the second.

Compared with AAAACCAT, AGCACCAG is lower in “PBM E-score” value: 0.0395 for the first, -0.12 for the second.

Going from GCACCACA to TAACGAGA, the “PBM E-score” value rises from -0.156 to 0.238.

First: CCGCCTCC
Second: GGAATGCC
The “PBM E-score” value of the first is lower: -0.299 for the first, -0.15 for the second.

Compared with AACTTACT, ACGCCAGG is higher in “PBM E-score” value: -0.0498 for the first, 0.0709 for the second.

Going from CCGATGTC to CAGCTAAC, the “PBM E-score” value falls from -0.0277 to -0.128.

Compared with TCATCTCA, ATATCTTA is lower in “PBM E-score” value: 0.224 for the first, 0.136 for the second.

First: ACACTGGG
Second: ACCTAGGA
The “PBM E-score” value of the first is lower: -0.32 for the first, -0.0432 for the second.

First: GCCGGCAA
Second: CTATTGTA
The “PBM E-score” value of the first is lower: -0.298 for the first, 0.169 for the second.

Compared with AAAGGGAG, CGCTTGTA is higher in “PBM E-score” value: -0.215 for the first, 0.0469 for the second.

Compared with GAGTCACC, AATATCGA is higher in “PBM E-score” value: -0.279 for the first, 0.11 for the second.

Going from GTTAAGTA to CTCATATA, the “PBM E-score” value falls from 0.228 to 0.0195.

Going from CGCATCCC to GATCCGGC, the “PBM E-score” value falls from -0.244 to -0.261.

First: AAACTATT
Second: CACGGGAG
The “PBM E-score” value of the first is higher: 0.1 for the first, -0.188 for the second.

First: CAGCCGAA
Second: ACGGGCCT
The “PBM E-score” value of the first is higher: -0.0357 for the first, -0.258 for the second.

Compared with CGCCGGTA, CGCGAAAC is higher in “PBM E-score” value: -0.0438 for the first, -0.0152 for the second.

First: AGCGCAGA
Second: CGTACGTA
The “PBM E-score” value of the first is lower: -0.293 for the first, 0.474 for the second.

Compared with GCATTCCA, AAAACTAA is higher in “PBM E-score” value: -0.00917 for the first, 0.272 for the second.

Compared with ATGGTGAA, CTGATGCA is higher in “PBM E-score” value: 0.0155 for the first, 0.0938 for the second.

Compared with ATGAATCC, ATCTTTAG is higher in “PBM E-score” value: -0.0396 for the first, 0.016 for the second.

First: CGTCCTGC
Second: CGATGACC
The “PBM E-score” value of the first is lower: -0.136 for the first, 0.0462 for the second.

Compared with ACAGCGAT, TATACGCA is higher in “PBM E-score” value: -0.248 for the first, 0.411 for the second.

First: CCACTCGG
Second: AGTCGCGC
The “PBM E-score” value of the first is lower: -0.298 for the first, -0.129 for the second.

First: CCGATGAC
Second: ATTCCGCC
The “PBM E-score” value of the first is higher: 0.312 for the first, -0.176 for the second.

Going from CAAACAGA to ACCAATTC, the “PBM E-score” value rises from -0.157 to 0.00776.

Compared with CGGCTCCA, CATGTTGC is higher in “PBM E-score” value: -0.318 for the first, 0.00941 for the second.

First: CCAGTGCG
Second: ATCTAGGA
The “PBM E-score” value of the first is lower: -0.259 for the first, 0.0999 for the second.

First: ATGATAAG
Second: AATAAGGT
The “PBM E-score” value of the first is higher: 0.141 for the first, -0.046 for the second.

Going from ACAAGCGT to ACCACTTA, the “PBM E-score” value rises from 0.054 to 0.149.

First: GCAGGAGA
Second: CAGGTCGG
The “PBM E-score” value of the first is lower: -0.286 for the first, -0.247 for the second.

Compared with GACCCAGC, CTTATTGA is higher in “PBM E-score” value: -0.227 for the first, 0.0844 for the second.
